# From the antibiotic and cytotoxicity screens of Wong et al. (2023)
# Some of the results follow.
# Assays:
# HSkMC = human skeletal muscle cells; assay: cytotoxicity call (relative viability < 0.9); details: 10 µM
# S. aureus RN4220 = assay: growth inhibition call (relative growth <= 0.2); details: 50 µM
Compound,cytotoxicity call (HSkMC),growth inhibition call (S. aureus RN4220)
C[N+](C)(C)CCCCCCNC(=O)[C@@H]1C[C@@H]2C(=O)N[C@@H](CCCC[N+](C)(C)C)C(=O)N2[C@@H]1c1ccc(O)cc1,inactive,active
CN(C)CC(=O)N[C@H]1C=C[C@@H](CC(=O)O)O[C@@H]1CO,inactive,inactive
C[C@@H]1CCCCO[C@@H](CN(C)C(=O)Nc2ccc(F)cc2)[C@@H](C)CN([C@H](C)CO)C(=O)c2cc(NC(=O)Nc3ccc(C(F)(F)F)cc3)ccc2O1,inactive,inactive
Cc1ccc(S(=O)(=O)N2C[C@H](O)COC[C@@H]3O[C@@H](CC(=O)N[C@@H]4CCN(Cc5ccccc5)C4)CC[C@H]32)cc1,inactive,inactive
C[C@@H]1CN([C@@H](C)CO)S(=O)(=O)c2ccc(-c3cccc(C#N)c3)cc2O[C@H]1CN(C)C(=O)c1ccncc1,inactive,inactive
Cc1ccc(S(=O)(=O)N(C)C[C@@H]2OCCCC[C@@H](C)Oc3ccc(NC(=O)NC4CCCCC4)cc3C(=O)N([C@@H](C)CO)C[C@H]2C)cc1,inactive,inactive
NC(=O)NCC#Cc1ccc2c(c1)[C@]1(C(=O)N2)[C@H](c2ccc(OCCO)cc2)N2[C@H](c3ccccc3)[C@H](c3ccccc3)OC(=O)[C@H]2[C@@H]1C(=O)N1CCCCCCC1,inactive,inactive
COc1ccc(NC(=O)N2C[C@H](O)COC[C@@H]3O[C@@H](CC(=O)NCc4ccccc4OC)CC[C@H]32)cc1,inactive,inactive
CCCOc1cc(N)ccc1C(=O)OCCN(CC)CC.Cl,inactive,inactive
